Assay results from the supplement of paper PMC4967469.
Lines with a small IC50 respond at low doses; where the fit passes the top or lowest dose, that dose stands as a limit. AUC, from the same fit, is the share of area under the viability curve across the 256-fold dose range; it is 1 without any effect and falls as sensitivity rises. For some assays here: A top dose marked as inferred was derived from the fitted curves, not read from the paper. For some assays here: An entry number marks a drug with two screens in the source, which often give different values.

Tests used:
Assay in all cases: Viability of human cancer cell lines after 72 h of drug (GDSC screen)
[1] = compound: C[C@]1(O)C[C@@H](c2nc(-c3ccc4ccc(-c5ccccc5)nc4c3)c3c(N)nccn32)C1 [OSI-906]; settings: top dose 2.56 µM; top dose inferred
Procedure: (§1)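 Human cancer cell lines in 384-well plates, medium with 10% serum, drug for 72 h over a 256-fold dose range (nine 2-fold or five 4-fold steps up to the top dose). Adherent lines were fixed and stained with the nucleic acid dye Syto60, suspension lines read with resazurin; signal relative to control wells, capped at 0 and 100%. One two-parameter sigmoid per drug and line, fitted in a mixed model over all curves with the slope shared within a line.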

[2] = compound: OCCCNc1cc(-c2ccnc(Nc3cccc(Cl)c3)n2)ccn1 [CGP-60474]; settings: top dose 0.256 µM; top dose inferred
Procedure: as §1

[3] = compound: CN1CCN(c2ccc([N+](=O)[O-])c3no[n+]([O-])c23)CC1 [NSC-207895]; settings: top dose 20 µM; top dose inferred
Procedure: as §1

[4] = compound: O=C(/C=C/c1cccc(S(=O)(=O)Nc2ccccc2)c1)NO [Belinostat]; settings: top dose 20 µM; top dose inferred
Procedure: as §1

[5] = compound: Cc1ccc(C(=O)N(CCCN)[C@@H](c2nc3cc(Cl)ccc3c(=O)n2Cc2ccccc2)C(C)C)cc1 [SB-715992]; settings: top dose 0.128 µM; top dose inferred
Procedure: as §1

[6] = compound: Cc1sc2c(c1C)C(c1ccc(Cl)cc1)=N[C@@H](CC(=O)OC(C)(C)C)c1nnc(C)n1-2 [JQ1]
Procedure: as §1

[7] = compound: CC1=C2C[C@H]3[C@@H](CC=C4C[C@@H](O)CC[C@@]43C)[C@@H]2CC[C@]12O[C@@H]1C[C@H](C)CN[C@H]1[C@H]2C [Cyclopamine]; settings: top dose 16 µM; top dose inferred
Procedure: as §1

[8] = compound: CC(=O)O[C@@]12CO[C@@H]1C[C@H](O)[C@@]1(C)C(=O)[C@H](O)C3=C(C)[C@@H](OC(=O)[C@H](O)[C@@H](NC(=O)OC(C)(C)C)c4ccccc4)C[C@@](O)([C@@H](OC(=O)c4ccccc4)[C@H]21)C3(C)C [Docetaxel]; settings: top dose 0.0125 µM
Procedure: as §1

[9] = compound: COC(=O)[C@H](CCSC)NC(=O)c1ccc(NC[C@@H](N)CS)cc1-c1ccccc1 [FTI-277]; settings: top dose 1.024 µM; top dose inferred
Procedure: as §1

[10] = compound: CC1(C)CNc2cc(NC(=O)c3cccnc3NCc3ccncc3)ccc21 [AMG-706]; settings: top dose 2 µM; top dose inferred
Procedure: as §1

[11] = compound: COCC[n+]1c2c(n(Cc3cnccn3)c1C)C(=O)c1ccccc1C2=O [YM155]; settings: top dose 5.12 µM
Procedure: as §1

[12] = compound: c1ccc2c(CCNc3ccc(Nc4ccncc4)cc3)c[nH]c2c1 [JNJ-26854165]; settings: top dose 10 µM
Procedure: as §1

[13] = compound: CCOc1nc(NC(=O)Cc2cc(OC)ccc2OC)cc(N)c1C#N [JNK Inhibitor VIII]; settings: top dose 10 µM; top dose inferred
Procedure: as §1

[14] = top dose 1 µM, screen: GDSC drug entry 1218, top dose inferred
[15] = top dose 2.56 µM, screen: GDSC drug entry 163

Cell Line	AUC [1]	IC50 [1] [nM]	AUC [2]	IC50 [2] [nM]	AUC [3]	IC50 [3] [nM]	AUC [4]	IC50 [4] [nM]	AUC [5]	IC50 [5] [nM]	AUC [6, 14]	IC50 [6, 14] [nM]	AUC [6, 15]	IC50 [6, 15] [nM]	AUC [7]	IC50 [7] [nM]	AUC [8]	IC50 [8] [nM]	AUC [9]	IC50 [9] [nM]	AUC [10]	IC50 [10] [nM]	AUC [11]	IC50 [11] [nM]	AUC [12]	IC50 [12] [nM]	AUC [13]	IC50 [13] [nM]
HDLM-2 (Hodgkin lymphoma, suspension)	0.97	> 2560	0.843	177	0.961	> 20000	0.82	11200	0.618	16.8	0.984	> 1000	0.764	915	0.958	> 16000	0.813	6.6	0.984	> 1020	0.988	> 2000	0.03	< 20	0.842	6840	0.987	> 10000
HH (T-cell leukaemia, suspension)	0.963	> 2560	0.725	87.8	0.865	> 20000	0.371	487	0.629	20.5	0.571	105	0.534	204	0.95	> 16000	0.926	> 12.5	0.876	> 1020	0.968	> 2000	0.048	< 20	0.836	> 10000	0.975	> 10000
IMR-5 (neuroblastoma, adherent)	0.982	> 2560	0.707	55	0.894	17300	0.463	1010	0.537	9.93	0.794	380	0.562	229	0.991	> 16000	0.947	> 12.5	0.992	> 1020	0.992	> 2000	0.05	< 20	0.989	> 10000	0.992	> 10000
JVM-3 (lymphoid neoplasm, suspension)	0.987	> 2560	0.954	> 256	0.951	> 20000	0.324	401	0.982	> 128	0.795	471	0.987	> 2560	0.987	> 16000	0.698	2.83	0.987	> 1020	0.98	> 2000	0.081	< 20	0.718	2630	0.983	> 10000
JiyoyeP-2003 (Burkitt lymphoma, suspension)	0.99	> 2560	0.625	33.7	0.888	17800	0.29	349	0.6	14.5	0.91	> 1000	0.702	544	0.96	> 16000	0.925	> 12.5	0.976	> 1020	0.99	> 2000	0.019	< 20	0.982	> 10000	0.989	> 10000
KARPAS-299 (anaplastic large cell lymphoma, suspension)	0.992	> 2560	0.582	25.8	0.927	> 20000	0.212	216	0.856	76.6	0.863	635	0.96	> 2560	0.939	> 16000	0.905	11.9	0.992	> 1020	0.983	> 2000	0.02	< 20	0.973	> 10000	0.984	> 10000
KARPAS-422 (B-cell lymphoma, suspension)	0.985	> 2560	0.701	58.3	0.702	4570	0.342	458	0.919	> 128	0.977	> 1000	0.66	441	0.914	> 16000	0.95	> 12.5	0.988	> 1020	0.975	> 2000	0.025	< 20	0.975	> 10000	0.983	> 10000
KE-37 (lymphoblastic leukaemia, suspension)	0.986	> 2560	0.735	61.2	0.895	14200	0.176	187	0.437	5.6	0.694	188	0.489	150	0.928	15500	0.947	> 12.5	0.978	> 1020	0.994	> 2000	0.012	< 20	0.897	7220	0.984	> 10000
KELLY (neuroblastoma, adherent)	0.919	> 2560	0.807	117	0.852	13300	0.246	253	0.72	31.4	0.988	> 1000	0.751	776	0.989	> 16000	0.683	2.4	0.985	> 1020	0.968	> 2000	0.177	38.5	0.853	6720	0.987	> 10000
KM-H2 (Hodgkin lymphoma, suspension)	0.987	> 2560	0.87	179	0.984	> 20000	0.993	> 20000	0.69	24.8	0.823	475	0.896	2300	0.972	> 16000	0.993	> 12.5	0.992	> 1020	0.979	> 2000	0.988	> 5120	0.954	> 10000	0.982	> 10000
KMOE-2 (acute myeloid leukaemia, suspension)	0.969	> 2560	0.952	> 256	0.881	17100	0.344	485	0.884	112	0.764	327	0.743	724	0.974	> 16000	0.897	> 12.5	0.977	> 1020	0.99	> 2000	0.109	21.1	0.933	> 10000	0.982	> 10000
KU812 (chronic myeloid leukaemia, suspension)	0.987	> 2560	0.635	36.5	0.606	2370	0.024	< 78.1	0.521	9.07	0.778	368	0.521	182	0.871	12800	0.921	> 12.5	0.987	> 1020	0.988	> 2000	0.021	< 20	0.846	6370	0.986	> 10000
KY821 (leukaemia, suspension)	0.992	> 2560	0.764	81.8	0.966	> 20000	0.408	726	0.944	> 128	0.991	> 1000	0.99	> 2560	0.967	> 16000	0.925	> 12.5	0.992	> 1020	0.992	> 2000	0.028	< 20	0.969	> 10000	0.989	> 10000
L-428 (Hodgkin lymphoma, suspension)	0.988	> 2560	0.818	122	0.987	> 20000	0.991	> 20000	0.851	80.7	0.979	> 1000	0.914	> 2560	0.982	> 16000	0.993	> 12.5	0.98	> 1020	0.991	> 2000	0.989	> 5120	0.992	> 10000	0.987	> 10000
LAMA-84 (chronic myeloid leukaemia, suspension)	0.966	> 2560	0.867	238	0.922	> 20000	0.37	543	0.752	42.9	0.977	> 1000	0.813	1410	0.899	> 16000	0.94	> 12.5	0.985	> 1020	0.98	> 2000	0.211	44.6	0.826	6170	0.967	> 10000
LB2518-MEL (melanoma, adherent)	0.945	> 2560	0.755	90.8	0.894	> 20000	0.561	1850	0.923	> 128	0.986	> 1000	0.924	> 2560	0.941	> 16000	0.882	> 12.5	0.979	> 1020	0.987	> 2000	0.036	< 20	0.92	> 10000	0.982	> 10000
LC4-1 (lymphoblastic leukaemia, suspension)	0.968	> 2560	0.737	82.7	0.82	13100	0.259	235	0.665	24.3	0.983	> 1000	0.575	262	0.943	> 16000	0.985	> 12.5	0.948	> 1020	0.984	> 2000	0.034	< 20	0.926	> 10000	0.984	> 10000
